For 91 compounds, IFI results are on record in ChEMBL document CHEMBL1157539, “Thousands of chemical starting points for antimalarial lead identification” (Nature, 2010).

The full ranking holds about 13,000 compounds; the median of “IFI” is about 4, and the highest 2% start at about 17. The list shows a part of the results.

The test is described as follows: GSK_TCMDC: Inhibition Frequency Index (IFI). The number of non-kinase HTS assays where a compound showed > 50 % inhibition, expressed as a percentage of the number of such assays in which the compound was tested (-0 is zero). Format: functional.
Consider `COc1ccc2nccc(NC(=O)N3CCC(NCCOc4cc(F)cc(F)c4)CC3)c2n1`, for which the IFI amounted to 2.24%.
Consider `Fc1cccc(Nc2nc(NCCc3ccc(Cl)cc3)nc(Nc3cccc(F)c3)n2)c1`, for which the IFI was 3.85%.
For `COc1ccc(Nc2nccc(N3CCC(NC(=O)C(C)c4ccc(Cl)cc4)CC3)n2)cc1` (stereo unspecified) the value was 3.08%; for `COc1ccc2ncc(F)c(CCN3CCC(CNC(=O)C(=O)c4c[nH]c5ccccc45)CC3)c2n1`, 2.96%; for `Nc1cc(-c2ccc3c(N)nccc3c2)ccc1Cl`, 0%.
Compound `C=CCc1ccc(C2CCN(CCCCNC(=O)c3ccc(NC(=O)c4ccc(Cl)cc4)cc3)CC2)cc1` displayed an IFI of 2.22%.
On to `Cn1cc(CCNc2ccnc(N3CCC(c4ncc[nH]4)CC3)n2)c2ccccc21`, for which the IFI was 8.33%.
For `CN(CCCN(C)c1cc(NC(=O)c2ccc(F)cc2)ccn1)Cc1cccc(F)c1` the value was 2.94%.
The value for `CCCCCCCN(Cc1ccc(OC(C)(C)C(=O)OCC)cc1)C(=O)Nc1ccccc1OC(F)(F)F` was 1.43%.
For `CC1(C)N=C(NC(=O)c2ccc([N+](=O)[O-])cc2)N=C(N)N1OCc1ccc2ccccc2c1` the value was 1.46%; for `COc1ccc2c(OC)cccc2c1CNCCCCCCNCc1c(OC)ccc2c(OC)cccc12`, 13.7%; for `Clc1ccc2nc(-c3cccnc3)[nH]c2c1`, 1.33%.
Turning to `Cc1cccc(C(=O)Nc2ccnc(N3CCC(N(C)Cc4ccc(C#N)cc4)CC3)c2)c1`, the IFI came to 2.44%.
For `Cc1ccc(O)cc1Nc1ccnc2ccc(C(C)(C)C)cc12` the value was 0.74%.
In turn, `CCN(CCCN1CCCCC1)c1nc(C)cc(Nc2ccc(Cl)cc2)n1` returned an IFI of 1.85%.
The value for `Nc1ccc(-c2ccc3ccnc(N)c3c2)cn1` was 5.56%; that for `CCOc1cc(C(=O)NC2CCN(Cc3ccccc3)CC2)ccc1-c1nc2cc(Cl)ccc2[nH]1` was 0.7%.
For `O=C(NC(Nc1ccc([N+](=O)[O-])cc1)C(Cl)(Cl)Cl)c1ccc(Cl)cc1` (stereo unspecified) the value was 19.9%; for `CN1CCC(C(=O)N(Cc2ccc(-c3ccc(CNCCc4ccccc4)cn3)cc2)Cc2cccc(F)c2)CC1`, 5.56%.
The value for `COc1ccc2ncc(F)c(CCN3CC(O)C(CNCc4ccc5c(n4)NC(=O)CS5)C3)c2c1` (stereo unspecified) was 2.86%; that for `O=C(NCCN1CCCC1)c1cccc(Nc2nccc(Nc3ccc(Oc4ccccc4)cc3)n2)c1` was 5.88%; that for `CSc1ccc2ccccc2c1CCNCCCCNCCc1c(SC)ccc2ccccc12` was 17%.
With `Cc1cccc2nc(-c3ccc(-c4cccc(CN5CC(C)OC(C)C5)c4)s3)[nH]c12` (stereo unspecified), the IFI is 5.63%.
The value for `Cc1sc2nc(CSc3ccccc3)nc(N3CCN(CC(=O)N4CCCC4)CC3)c2c1C` was 3.77%.
`Cc1cc(=O)c2cc(-c3ccc(OC(F)(F)F)cc3)ccc2[nH]1` had an IFI of 0%.
For `Cc1noc(-c2ccc(NC[C@@H](C)NC[C@H](O)c3cccc(Cl)c3)cc2)n1`, the IFI worked out at 0.69%.
For `Cc1cccc2nc(-c3ccc(-c4cccc(CNCCN(C)C)c4)cc3)[nH]c12` the value was 6.73%.
The value for `CC(C)C1C(O)=C(c2ccc3ccccc3c2)C(=O)N1CC1CCCCC1` (stereo unspecified) was 0.68%; that for `Fc1cccc(COc2ccc(Nc3ncnc4cc(/C=C/[C@@H]5CCCN5)sc34)cc2Cl)c1` was 8.55%.
The value for `Cc1nnc2c(NC(=O)NC3CCCC3)cc3cc(-c4ccc(CN5CCN(C)CC5)cc4)ccc3n12` was 6.45%; that for `COc1cc(Cc2cnc(N)nc2N)cc(OCCCN2C(=O)c3ccccc3C2=O)c1OC` was 0%.
In turn, `CN(C)CCn1cc(C(=O)c2cc(Cl)ccc2O)cc1-c1nc2ccccc2c(=O)[nH]1` came in with an IFI of 1.96%.
The value for `Cc1cc(N[C@@H](Cc2ccccc2)C(=O)NC2CCCC2)nc(NCCOc2ccccc2)n1` was 15.6%; that for `CC1CN(c2cnn(Cc3cccc(NC(=O)Nc4ccc(F)cc4[N+](=O)[O-])c3)c(=O)c2Cl)CC(C)N1` (stereo unspecified) was -0%.
Turning to `CN1CCC(NCc2cccc(-c3cccc(S(=O)(=O)NCc4ccccc4)c3)c2)CC1`, the IFI came to 11.2%.
For `O=C(Nc1ccccc1)NC1CCN(CCC2(c3ccc(Cl)c(Cl)c3)COCN(C(=O)c3ccccc3)C2)C1` (stereo unspecified) the value was 3.47%.
The value for `COc1cc2nc(N3CCC(CCCC4CCNCC4)CC3)nc(NCc3ccccn3)c2cc1OC` was 6.34%.
`O=[N+]([O-])c1cccc(CNCC2CCC(CNCc3cccc([N+](=O)[O-])c3)CC2)c1` (stereo unspecified) showed an IFI of 8.7%.
`COc1cccc(Nc2nccc(-c3c(-c4cccc(NC(=O)c5c(F)cccc5F)c4)nn4ccccc34)n2)c1` had an IFI of 4.39%.
Compound `CCOC(=O)N[C@@H]1CN[C@@H](C#Cc2cc3c(Nc4ccc(OCc5cccc(F)c5)c(Cl)c4)ncnc3s2)C1` came in with an IFI of 1.48%.
The value for `COc1ccc2nc(N(CCCn3ccnc3)C(=O)C=Cc3cccs3)sc2c1` was -0%.
The value for `CCn1c(-c2nonc2N)nc2cnc(Oc3cccc(NC(=O)c4ccc(OCCN5CCCC5)cc4)c3)cc21` was 7.48%.
For `Cc1nnc(NC(=O)c2cn(-c3ccccc3)nc2-c2ccccc2C)o1` the value was -0%.
In turn, `COc1ccc2ncc(F)c(CCN3CC(O)C(CNCc4ccc5oc(=O)ccc5c4)C3)c2n1` (stereo unspecified) displayed an IFI of 1.92%.
`Cc1cc(-c2ccc3occ(CCN)c3c2)cnc1N` returned an IFI of 3.13%.
Consider `CC(NCC(O)Cn1c2ccccc2c2ccccc21)c1ccccc1` (stereo unspecified), for which the IFI came out at 7.64%.
For the compound `CC(C)N1CCC(NCc2ccc(-c3ccc(Cl)cc3)cc2)CC1`, the IFI is 5%.
For `Cc1ccc(C(=O)Nc2cccc([N+](=O)[O-])c2)cc1S(=O)(=O)N1CC(C)CC(C)C1` (stereo unspecified) the value was 2.9%.
For `C=C1C(C(=O)OCC)=CN(CC)c2cc(O[C@@H]3CCN(C(=O)OC(C)(C)C)C3)ccc21` the value was -0%; for `COc1ccc2c(-c3ccccc3)noc2c1`, 2.07%; for `c1cc(-c2ccc(CNC3CCOCC3)cc2)cc(-c2nc3ccccc3[nH]2)c1`, 0.97%.
In turn, `COc1ccc(-c2nc(NCc3ccccc3)c3cc(OC)c(OC)cc3n2)cc1` registered an IFI of 2.99%.
`COc1ccc(-c2ncnc(C(F)(F)F)c2-c2ccc(Cl)cc2)c(O)c1` gave an IFI of 1.5%.
For `CCc1c(C)nc(-n2nc(C)cc2NC(=O)CCc2ccccc2)[nH]c1=O` the value was 7.84%; for `O=C(NC1CCN(Cc2ccccc2)CC1)c1cccc(-c2cc3cc(Cl)c(Cl)cc3[nH]2)c1`, 0.72%; for `O=c1cc(NCCCNCc2cccc(I)c2)[nH]c2ccccc12`, 5.04%.
For `N=C(N)NC(=O)Nc1cc(F)c(Cl)c(Br)c1`, the IFI stood at 0.73%.
For `CC(C)CCNC(=N)c1ccc(OCCCCCOc2ccc(C(=N)NCCC(C)C)cc2)cc1` the value was 2.88%.
The value for `N=C(N)c1cccc(-c2cc(-c3cccc(C(=N)N)c3)on2)c1` was -0%; that for `NC1CCCN(Cc2ccc(-c3cccc(-c4nc5ccccc5[nH]4)c3)cc2)C1` (stereo unspecified) was 11.3%; that for `CCCCCC(NCCCC)c1ccc(OCCOc2ccc(C(CCCCC)NCCCC)cc2)cc1` (stereo unspecified) was 16.3%.
The value for `Cc1ccc2[nH]c(C)cc(=NN=Cc3ccccc3Cl)c2c1` was 0.7%; that for `CC(C)C[C@H](NC(=O)c1cc2ccccc2s1)C(=O)N[C@H]1CCN(Cc2ccc(OC[C@@H]3CCCN3C)c3ccccc23)C1` was 13.3%; that for `COc1ccc2nccc(N3CCC(SCCNS(=O)(=O)c4ccc5c(c4)OCCO5)C3)c2n1` (stereo unspecified) was 10.8%.
`COC(=O)c1cccc(CNCc2ccc(-c3ccc(-c4nc5cc(F)ccc5[nH]4)cc3)cc2)c1` registered an IFI of 9.62%.
For the compound `O=C(Nc1ccc(Oc2ccccc2)cc1)N1CCC(CCN2CCC(c3c[nH]c4ccccc34)CC2)CC1`, the IFI came to 5.71%.
The value for `COc1cc(Nc2nccc(N3CCC(NC(=O)C4COc5ccccc5O4)C3)n2)cc(OC)c1OC` (stereo unspecified) was 1.54%.
`CC(C)c1ccc(CN(C)CCCCNC(=O)c2ccc(NC(=O)c3ccc(Cl)cc3)cc2)cc1` gave an IFI of 2.61%.
For `Cc1cccc2nc(-c3ccc(-c4ccc(NC(=O)NCc5cccc(F)c5)cc4)s3)[nH]c12` the value was 6%.
For the compound `Nc1c2c(nc3ccc(NC(=O)CCCCCc4ccccc4)cc13)CCCC2`, the IFI was found to be 6.16%.
The compound `COc1ccc2[nH]cc(C3CCN(CCC4CCN(C(=O)/C=C/c5ccc(Cl)c(Cl)c5)CC4)CC3)c2c1` gave an IFI of 5.19%.
For `CN1CCC(C(=O)Nc2ccc(-c3ccc(-c4nc5cc(C(F)(F)F)ccc5[nH]4)s3)cc2)CC1` the value was 7.83%; for `CC(C)NCc1ccc(-c2cccc(NC(=O)c3ccc(C#N)cc3)c2)cc1`, -0%.
The value for `Cc1ccc(Cn2ncc(N3CCC(N)CC3)c(Cl)c2=O)cc1NC(=O)Nc1ccc(-c2ccccc2)cc1` was 11%; that for `O=C1C(C2CCC(c3ccc(Cl)cc3)CC2)=C2OCC3COC2(O3)c2ccccc21` (stereo unspecified) was 0.75%; that for `CNC(=O)Cc1ccc(C(=O)Nc2cccc(-c3ccc(-c4nc5cccc(C)c5[nH]4)s3)c2)cc1` was 7.21%.
For `COc1cc(F)c2nccc([C@@H](O)CN3CCC(NC(=O)OCc4ccccc4)C(F)C3)c2c1` (stereo partly specified) the value was 12.7%.
In turn, `COc1cccc(-c2cc(C(=O)NC3CCC(N4CCC(c5ccccc5C)CC4)CC3)[nH]n2)c1` (stereo unspecified) registered an IFI of 9.84%.
On to `Cc1cc2cc(-c3ccc(CN)cc3)ccc2nc1N`, for which the IFI was found to be 3.88%.
For `O=C1COc2ccc(CNC3CCC(O)(CCc4ccnc5cc6c(cc45)OCCO6)CC3)nc2N1` (stereo unspecified) the value was 0.73%; for `Cc1cc(C2CCN(CCCCNC(=O)c3ccc(-c4ccc(C#N)cc4)cc3)CC2)c(C)cc1OCCO`, 3.7%; for `CC1(C)N=C(N)N=C(N)N1OCc1cc2ccccc2cc1CON1C(N)=NC(N)=NC1(C)C`, 2.8%.
In turn, `CCN1CCN(CCCNc2c3ccc(Cl)cc3nc3ccc(O)cc23)CC1` gave an IFI of 4.48%.
The value for `O=C(/C=C/c1cc(C(F)(F)F)ccc1F)NCCCCCN1CCC(c2c[nH]c3ccccc23)CC1` was 4.26%; that for `O=S(=O)(NCCN1CCCC1)c1cccc(-c2cccc(CNCCc3cccs3)c2)c1` was 9.01%; that for `CCCCCCn1ccc2c3c(N)nc(N)nc3ccc21` was 6.45%.
Compound `OC(c1ccccc1)C1CN(Cc2ccccc2)CCC1(O)c1ccccc1` (stereo unspecified) gave an IFI of 2.31%.
In the case of `N#Cc1ccc(N2CCN(Cc3cccc(-c4cccc(-c5nc6cc(C(F)(F)F)ccc6[nH]5)c4)c3)CC2)nc1`, the IFI came out at 1.92%.
The value for `COc1ccc2[nH]ccc(=NN=Cc3cccc(Cl)c3)c2c1` was 4.58%.
`O=C(Nc1ccc(-c2nc3ccccc3[nH]2)cc1)C1CCN(Cc2cccc(F)c2F)CC1` displayed an IFI of 4.76%.
For `CCOc1cc(C(=O)NCCN2CCCCC2)ccc1-c1nc2cc(Cl)ccc2[nH]1` the value was 0.72%.
